{
  "source": "the supplement of paper PMC8728848",
  "test_in_all_cases": "glycan array binding signal (z-score within array); higher = stronger binding",
  "conditions_in_all_cases": "glycan notation: IUPAC condensed, linker removed",
  "key": {"[1]": {"target": "Fuc(a1-2)[GalNAc(a1-3)]Gal(b1-3)GalNAc(b1-3)Gal(a1-4)Gal(b1-4)Glc", "method_in_brief": "(§1)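 Glycan array data were curated from 3228 arrays in the Consortium for Functional Glycomics database and kept only where the protein sequence was available. Glycan names were converted to IUPAC-condensed notation, and columns mapping to the same glycan were averaged. The binding signal is a within-array Z-score, averaged across arrays of the same protein sequence at different concentrations or buffers and across linkers. Negative Z-scores can be read as non-binding.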"}, "[2]": {"target": "Fuc(a1-2)[GalNAc(a1-3)]Gal(b1-3)GlcNAc", "method_in_brief": "as §1"}, "[3]": {"target": "Fuc(a1-2)[GalNAc(a1-3)]Gal(b1-3)GlcNAc(b1-2)Man(a1-3)[Fuc(a1-2)[GalNAc(a1-3)]Gal(b1-3)GlcNAc(b1-2)Man(a1-6)]Man(b1-4)GlcNAc(b1-4)GlcNAc", "method_in_brief": "as §1"}, "[4]": {"target": "Fuc(a1-2)[GalNAc(a1-3)]Gal(b1-3)GlcNAc(b1-2)Man(a1-3)[Fuc(a1-2)[GalNAc(a1-3)]Gal(b1-3)GlcNAc(b1-2)Man(a1-6)]Man(b1-4)GlcNAc(b1-4)[Fuc(a1-6)]GlcNAc", "method_in_brief": "as §1"}, "[5]": {"target": "Fuc(a1-2)[GalNAc(a1-3)]Gal(b1-3)GlcNAc(b1-3)Gal(b1-4)Glc", "method_in_brief": "as §1"}, "[6]": {"target": "Fuc(a1-2)[GalNAc(a1-3)]Gal(b1-3)GlcNAc(b1-3)GalNAc", "method_in_brief": "as §1"}, "[7]": {"target": "Fuc(a1-2)[GalNAc(a1-3)]Gal(b1-3)GlcNAc(b1-6)GalNAc", "method_in_brief": "as §1"}, "[8]": {"target": "Fuc(a1-2)[GalNAc(a1-3)]Gal(b1-3)[Fuc(a1-4)]GlcNAc(b1-3)Gal(b1-4)Glc", "method_in_brief": "as §1"}, "[9]": {"target": "Fuc(a1-2)[GalNAc(a1-3)]Gal(b1-4)Glc", "method_in_brief": "as §1"}, "[10]": {"target": "Fuc(a1-2)[GalNAc(a1-3)]Gal(b1-4)GlcNAc", "method_in_brief": "as §1"}, "[11]": {"target": "Fuc(a1-2)[GalNAc(a1-3)]Gal(b1-4)GlcNAc(b1-2)Man", "method_in_brief": "as §1"}, "[12]": {"target": "Fuc(a1-2)[GalNAc(a1-3)]Gal(b1-4)GlcNAc(b1-2)Man(a1-3)[Fuc(a1-2)[GalNAc(a1-3)]Gal(b1-4)GlcNAc(b1-2)Man(a1-6)]Man(b1-4)GlcNAc(b1-4)GlcNAc", "method_in_brief": "as §1"}, "[13]": {"target": "Fuc(a1-2)[GalNAc(a1-3)]Gal(b1-4)GlcNAc(b1-2)Man(a1-3)[Fuc(a1-2)[GalNAc(a1-3)]Gal(b1-4)GlcNAc(b1-2)Man(a1-6)]Man(b1-4)GlcNAc(b1-4)[Fuc(a1-6)]GlcNAc", "method_in_brief": "as §1"}, "[14]": {"target": "Fuc(a1-2)[GalNAc(a1-3)]Gal(b1-4)GlcNAc(b1-3)Gal(b1-4)GlcNAc", "method_in_brief": "as §1"}, "[15]": {"target": "Fuc(a1-2)[GalNAc(a1-3)]Gal(b1-4)GlcNAc(b1-3)Gal(b1-4)GlcNAc(b1-3)Gal(b1-4)GlcNAc", "method_in_brief": "as §1"}, "[16]": {"target": "Fuc(a1-2)[GalNAc(a1-3)]Gal(b1-4)GlcNAc(b1-3)GalNAc", "method_in_brief": "as §1"}, "[17]": {"target": "Fuc(a1-2)[GalNAc(a1-3)]Gal(b1-4)GlcNAc(b1-3)[Fuc(a1-2)[GalNAc(a1-3)]Gal(b1-4)GlcNAc(b1-6)]GalNAc", "method_in_brief": "as §1"}, "[18]": {"target": "Fuc(a1-2)[GalNAc(a1-3)]Gal(b1-4)GlcNAc(b1-6)GalNAc", "method_in_brief": "as §1"}, "[19]": {"target": "Fuc(a1-2)[GalNAc(a1-3)]Gal(b1-4)[Fuc(a1-3)]GlcNAc", "method_in_brief": "as §1"}, "[20]": {"target": "Fuc(a1-2)[GalNAc(a1-3)]Gal(b1-4)[Fuc(a1-3)]GlcNAc(b1-3)GalNAc", "method_in_brief": "as §1"}, "[21]": {"target": "Fuc(a1-2)[GalNAc(a1-4)]Gal(b1-4)GlcNAc", "method_in_brief": "as §1"}, "[22]": {"target": "Fuc(a1-2)[GalNAc(b1-3)]Gal", "method_in_brief": "as §1"}, "[23]": {"target": "Fuc(a1-2)[Neu5Ac(bond)]Gal(b1-3)GlcNAc(b1-3)Gal(b1-4)Glc", "method_in_brief": "as §1"}, "[24]": {"target": "Fuc(a1-3)GlcNAc", "method_in_brief": "as §1"}, "[25]": {"target": "Fuc(a1-3)GlcNAc6S", "method_in_brief": "as §1"}, "[26]": {"target": "Fuc(a1-3)[3dGal(b1-4)]Glc", "method_in_brief": "as §1"}, "[27]": {"target": "Fuc(a1-3)[3dGal(b1-4)]GlcNAc(b1-3)Gal", "method_in_brief": "as §1"}, "[28]": {"target": "Fuc(a1-3)[Gal(b1-4)]Glc", "method_in_brief": "as §1"}, "[29]": {"target": "Fuc(a1-3)[Gal(b1-4)]Glc6S", "method_in_brief": "as §1"}, "[30]": {"target": "Fuc(a1-3)[Gal(b1-4)]GlcNAc", "method_in_brief": "as §1"}, "[31]": {"target": "Fuc(a1-3)[Gal(b1-4)]GlcNAc(b1-2)Man", "method_in_brief": "as §1"}, "[32]": {"target": "Fuc(a1-3)[Gal(b1-4)]GlcNAc(b1-2)Man(a1-3)[Fuc(a1-3)[Gal(b1-4)]GlcNAc(b1-2)Man(a1-6)]Man(b1-4)GlcNAc(b1-4)GlcNAc", "method_in_brief": "as §1"}, "[33]": {"target": "Fuc(a1-3)[Gal(b1-4)]GlcNAc(b1-2)Man(a1-3)[Fuc(a1-3)[Gal(b1-4)]GlcNAc(b1-2)Man(a1-6)]Man(b1-4)GlcNAc(b1-4)[Fuc(a1-6)]GlcNAc", "method_in_brief": "as §1"}, "[34]": {"target": "Fuc(a1-3)[Gal(b1-4)]GlcNAc(b1-3)Gal(b1-3)[Fuc(a1-4)]GlcNAc", "method_in_brief": "as §1"}, "[35]": {"target": "Fuc(a1-3)[Gal(b1-4)]GlcNAc(b1-3)Gal(b1-4)Glc", "method_in_brief": "as §1"}, "[36]": {"target": "Fuc(a1-3)[Gal(b1-4)]GlcNAc(b1-3)Gal(b1-4)[Fuc(a1-3)]Glc", "method_in_brief": "as §1"}, "[37]": {"target": "Fuc(a1-3)[Gal(b1-4)]GlcNAc(b1-3)Gal(b1-4)[Fuc(a1-3)]GlcNAc", "method_in_brief": "as §1"}},
  "note": "This is one part of the list.",
  "data": [
    {"binder": "PNA (Arachis hypogaea), P02872 (protein) MKPFCVFLTFFLLLAASSKKVDSAETVSFNFNSFSEGNPAINFQGDVTVLSNGNIQLTNLNKVNSVGRVLYAMPVRIWSSATGNVASFLTSFSFEMKDIKDYDPADGIIFFIAPEDTQIPAGSIGGGTLGVSDTKGAGHFVGVEFDTYSNSEYNDPPTDHVGIDVNSVDSVKTVPWNSVSGAVVKVTVIYDSSTKTLSVAVTNDNGDITTIAQVVDLKAKLPERVKFGFSASGSLGGRQIHLIRSWSFTSTLITTTRRSIDNNEKKIMNMASA", "values": [
      {"measurement": "glycan array binding signal (z-score)", "setting": "[1]", "result": -0.375},
      {"measurement": "glycan array binding signal (z-score)", "setting": "[2]", "result": -0.097},
      {"measurement": "glycan array binding signal (z-score)", "setting": "[3]", "result": -0.159},
      {"measurement": "glycan array binding signal (z-score)", "setting": "[4]", "result": -0.127},
      {"measurement": "glycan array binding signal (z-score)", "setting": "[5]", "result": -0.195},
      {"measurement": "glycan array binding signal (z-score)", "setting": "[6]", "result": -0.225},
      {"measurement": "glycan array binding signal (z-score)", "setting": "[7]", "result": -0.28},
      {"measurement": "glycan array binding signal (z-score)", "setting": "[8]", "result": -0.195},
      {"measurement": "glycan array binding signal (z-score)", "setting": "[9]", "result": -0.167},
      {"measurement": "glycan array binding signal (z-score)", "setting": "[10]", "result": -0.171},
      {"measurement": "glycan array binding signal (z-score)", "setting": "[11]", "result": -0.252},
      {"measurement": "glycan array binding signal (z-score)", "setting": "[12]", "result": -0.29},
      {"measurement": "glycan array binding signal (z-score)", "setting": "[13]", "result": -0.229},
      {"measurement": "glycan array binding signal (z-score)", "setting": "[14]", "result": -0.147},
      {"measurement": "glycan array binding signal (z-score)", "setting": "[15]", "result": 0.074},
      {"measurement": "glycan array binding signal (z-score)", "setting": "[16]", "result": -0.177},
      {"measurement": "glycan array binding signal (z-score)", "setting": "[17]", "result": -0.289},
      {"measurement": "glycan array binding signal (z-score)", "setting": "[18]", "result": -0.241},
      {"measurement": "glycan array binding signal (z-score)", "setting": "[19]", "result": -0.123},
      {"measurement": "glycan array binding signal (z-score)", "setting": "[20]", "result": -0.116},
      {"measurement": "glycan array binding signal (z-score)", "setting": "[21]", "result": 0.129},
      {"measurement": "glycan array binding signal (z-score)", "setting": "[22]", "result": -0.151},
      {"measurement": "glycan array binding signal (z-score)", "setting": "[23]", "result": -0.195},
      {"measurement": "glycan array binding signal (z-score)", "setting": "[24]", "result": -0.187},
      {"measurement": "glycan array binding signal (z-score)", "setting": "[25]", "result": -0.195},
      {"measurement": "glycan array binding signal (z-score)", "setting": "[26]", "result": -0.195},
      {"measurement": "glycan array binding signal (z-score)", "setting": "[27]", "result": -0.195},
      {"measurement": "glycan array binding signal (z-score)", "setting": "[28]", "result": -0.195},
      {"measurement": "glycan array binding signal (z-score)", "setting": "[29]", "result": -0.06},
      {"measurement": "glycan array binding signal (z-score)", "setting": "[30]", "result": -0.186},
      {"measurement": "glycan array binding signal (z-score)", "setting": "[31]", "result": -0.225},
      {"measurement": "glycan array binding signal (z-score)", "setting": "[32]", "result": -0.106},
      {"measurement": "glycan array binding signal (z-score)", "setting": "[33]", "result": -0.162},
      {"measurement": "glycan array binding signal (z-score)", "setting": "[34]", "result": -0.117},
      {"measurement": "glycan array binding signal (z-score)", "setting": "[35]", "result": -0.195},
      {"measurement": "glycan array binding signal (z-score)", "setting": "[36]", "result": -0.195},
      {"measurement": "glycan array binding signal (z-score)", "setting": "[37]", "result": -0.21}
    ]}
  ]
}
